In the supplement of paper PMC3724861:
The other results are listed elsewhere or left out.

Each sequence was assayed on T1, Caupolican (Caup) homeodomain DNA-binding domain (assay: PBM E-score (8-mer, recovered from the published 9-mer minima) (E-score (dimensionless, -0.5 to 0.5)); Drosophila protein; higher = stronger relative binding preference, active = 0.31 or more).
T1 sequence: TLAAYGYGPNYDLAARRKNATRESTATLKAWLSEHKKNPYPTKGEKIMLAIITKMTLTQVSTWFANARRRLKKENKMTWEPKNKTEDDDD
Summary of the method: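 Caup's homeodomain DNA-binding domain (residues 214-303) was produced by in vitro transcription and translation and applied at 100 nM to custom-designed protein binding microarrays. Each value is an enrichment score giving relative binding preference for a short DNA word; higher means stronger. Published 9-mer scores were the minimum of their two constituent 8-mer scores, and the 8-mer values were recovered from those minima. A cutoff of 0.31 marks candidate binding sequences.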

Row | Sequence | PBM E-score
1 | CCATACCA | inactive: 0.0311
2 | ACGCACCT | inactive: -0.0993
3 | AATATGGA | ≥ 0.154
4 | CACCCCGC | inactive: -0.205
5 | ATACAGCC | inactive: 0.0406
6 | GAGGAACC | inactive: -0.0599
7 | AGTGTGTG | inactive: 0.139
8 | CATCAATC | inactive: 0.122
9 | CCGCTTGC | inactive: -0.195
10 | AACTGGAA | inactive: -0.00787
11 | CGCCTTCA | inactive: -0.176
12 | AGCGCGAT | ≥ -0.033
13 | ATTGTGGG | inactive: -0.0571
14 | GCAGTCCA | inactive: -0.0454
15 | ACGGTTCC | inactive: -0.0912
16 | GACCGCAC | inactive: -0.162
17 | TGGCACCA | inactive: -0.0957
18 | CTTATCGC | inactive: -0.0366
19 | ACCTAAAG | inactive: -0.0479
20 | CCAAACCG | inactive: -0.0831
21 | GTCAAGAC | inactive: 0.0237
22 | ATGCGCCA | ≥ -0.0376
23 | AGACGTTC | inactive: 0.0591

Row | Sequence | PBM E-score
24 | ATTCTGCA | inactive: -0.0106
25 | ATCTGGGC | inactive: -0.228
26 | GCTCCGAC | inactive: -0.0988
27 | CAAGATGA | inactive: 0.0249
28 | TAACGGGA | inactive: -0.00726
29 | ACCCAAGG | inactive: -0.0724
30 | TATCAGCA | inactive: 0.0861
31 | ATCGACTA | ≥ 0.114
32 | CAAGTTCG | inactive: -0.0609
33 | CTGTAATC | inactive: 0.162
34 | AGAGATCA | ≥ 0.0775
35 | ATCGAAAT | inactive: 0.0069
36 | ACGGAACT | inactive: 0.0381
37 | AGACCAGC | inactive: -0.163
38 | ACTCCGTA | inactive: -0.112
39 | CGGACGAC | inactive: 0.0284
40 | ATATGTAA | active: 0.34
41 | ATAATGGG | inactive: 0.0526
42 | CAAGATAA | inactive: 0.224
43 | AGACAATG | inactive: 0.194
44 | AACAGGAC | inactive: 0.169
45 | AACCGCCG | inactive: -0.174
46 | AGTAAAGC | inactive: -0.00784

Row | Sequence | PBM E-score
47 | TCCTTTCA | inactive: -0.0369
48 | ACGATCGG | inactive: 0.00215
49 | CCTGAGAC | inactive: -0.134
50 | CGCCGTTC | inactive: -0.0675
51 | AGGGACCC | inactive: -0.284
52 | CATATATA | inactive: 0.28
53 | GAGCTACA | inactive: 0.0656
54 | ACTCTATA | inactive: 0.0364
55 | CATCGTAA | inactive: 0.0727
56 | GGTCATCA | inactive: -0.0416
57 | ACTCACGC | inactive: -0.109
58 | AGGTGTCC | inactive: 0.118
59 | AAGAAAGT | inactive: 0.0101
60 | AACCGTTA | inactive: 0.119
61 | GACCCATA | inactive: 0.0231
62 | GATAATGA | inactive: 0.0499
63 | AAATGCGC | inactive: -0.0155
64 | GTGCAATA | inactive: 0.0575
65 | CCACTACA | inactive: 0.172
66 | CATTGCTA | inactive: 0.148
67 | CCTCTTAA | inactive: -0.0401
68 | ACAAGTAG | active: 0.351
69 | AACTCTAC | inactive: -0.0301

Row | Sequence | PBM E-score
70 | CAACCAAA | inactive: 0.0298
71 | AGGGAGAA | inactive: -0.0592
72 | CTCACATC | inactive: 0.0686
73 | CCCAAAGG | inactive: -0.265
74 | CGTAAGTA | inactive: 0.0813
75 | AGATAAGC | inactive: 0.0155
76 | AAGGTCTG | inactive: -0.0658
77 | ATTTCGCA | ≥ 0.07
78 | CCAATTCG | inactive: 0.0118
79 | AGTAAGCC | inactive: -0.0941
80 | ATCAAAAG | inactive: 0.0698
81 | AGGCCAGG | inactive: -0.267
82 | CTAATATA | inactive: 0.254
83 | AAGACGCC | inactive: -0.156
84 | CTGACAAG | active: 0.341
85 | GGAACCCC | inactive: -0.198
86 | CTGTCAAG | inactive: -0.017
87 | CCTCAAAA | inactive: -0.00347
88 | GCTTTACC | inactive: 0.104
89 | ATGAGTAC | inactive: 0.185
90 | CCTAGGTC | inactive: -0.164
91 | AACTTTTA | inactive: 0.002
92 | CCTCGTAC | inactive: 0.043

Row | Sequence | PBM E-score
93 | TAACTGGA | inactive: 0.00487
94 | GCCGTGCA | inactive: -0.068
95 | GGCCTACC | inactive: -0.17
96 | CCTACTAC | inactive: 0.0788
97 | ATTGCCCC | inactive: -0.0891
98 | CCAGGCCC | inactive: -0.267
99 | AACTACTA | ≥ 0.236
100 | GCGTCAGA | inactive: -0.0394
101 | GCCGATTA | inactive: 0.0515
102 | ACATCACA | active: 0.334
103 | CATTAGGG | inactive: -0.119
104 | AAAGTAGT | inactive: 0.0876
105 | GATTACCA | inactive: 0.0721
106 | AGACGCCT | inactive: -0.171
107 | ACGTAGTG | inactive: 0.0333
108 | AGAAACAG | inactive: 0.0712
109 | CAGAGTGG | inactive: -0.0137
110 | ATCCCAAA | inactive: -0.00932
111 | TCAATCGA | inactive: 0.147
112 | CGGGACCG | inactive: -0.14
